# Results taken from PubChem BioAssay AID488969 (Vanderbilt High Throughput Screening Facility, 2010).
# In all, about 110,000 compounds were measured (“z-score”: median about -0.1, highest 2% from about 2 on). Some of the results follow. Activity calls are given as the source filed them.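 How the source made its calls: active means z-score in the third read window above 3 or below -3; inactive means the rest.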
# Biological target: Metabotropic glutamate receptor 8 (Rattus norvegicus) (UniProt P70579)
# Chain of UniProt P70579 (P70579 whole entry, looked up): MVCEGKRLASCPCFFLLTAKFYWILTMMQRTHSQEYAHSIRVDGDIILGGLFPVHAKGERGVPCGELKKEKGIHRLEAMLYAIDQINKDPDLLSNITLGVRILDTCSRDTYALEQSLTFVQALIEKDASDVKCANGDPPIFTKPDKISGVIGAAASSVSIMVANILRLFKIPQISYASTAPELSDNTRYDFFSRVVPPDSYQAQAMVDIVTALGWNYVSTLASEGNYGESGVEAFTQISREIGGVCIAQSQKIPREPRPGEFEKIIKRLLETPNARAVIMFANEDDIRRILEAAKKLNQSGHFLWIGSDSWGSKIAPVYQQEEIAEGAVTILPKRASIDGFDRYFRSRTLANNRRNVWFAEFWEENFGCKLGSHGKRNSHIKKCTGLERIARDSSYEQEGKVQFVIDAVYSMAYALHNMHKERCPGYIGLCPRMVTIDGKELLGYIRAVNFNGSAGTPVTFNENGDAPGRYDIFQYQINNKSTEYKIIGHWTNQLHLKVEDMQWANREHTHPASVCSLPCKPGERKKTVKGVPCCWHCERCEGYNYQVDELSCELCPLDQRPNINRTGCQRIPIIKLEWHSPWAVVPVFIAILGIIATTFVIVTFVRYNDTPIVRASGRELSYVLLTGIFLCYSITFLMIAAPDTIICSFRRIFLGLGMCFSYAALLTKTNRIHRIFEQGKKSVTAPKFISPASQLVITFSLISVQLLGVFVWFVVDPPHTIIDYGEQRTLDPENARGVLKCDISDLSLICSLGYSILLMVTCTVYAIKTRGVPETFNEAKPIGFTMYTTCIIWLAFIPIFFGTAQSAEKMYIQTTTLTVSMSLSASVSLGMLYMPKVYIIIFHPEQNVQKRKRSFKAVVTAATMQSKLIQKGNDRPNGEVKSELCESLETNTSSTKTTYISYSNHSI
# Experiment: mGluR8 Gi/Go-coupled signaling modulation – cell-based, rat, thallium flux, HTS, primary screen (AID 488969)
# Conditions: HEK293 rat mGluR8, GIRK (G protein-gated inwardly rectifying potassium channel) thallium flux, FluoZin2; at 10 µM; stronger effect = higher value; submaximal glutamate (EC20) added with thallium
row,SMILES,z-score
1,CCOc1cc(/C=C2\C(=O)N(c3ccc(C(N)=O)cc3)N=C2C)ccc1OC(=O)c1cccs1,0.0117
2,Cc1ccc(NC(=O)c2cc3c(=O)oc4ccccc4c3s2)nc1,0.238
3,O=C(Cn1nnc2ccccc2c1=O)NCCc1ccc(Cl)cc1Cl,0.684
4,CCOC(=O)NC(NCc1ccccc1)(C(F)(F)F)C(F)(F)F,-0.243
5,O=C(CSc1nc2cc(Cl)ccc2s1)N1CCCc2ccccc21,-0.158
6,Fc1cccc(F)c1CSc1nc2ccccc2[nH]1,-0.786
7,CN1c2cccc3cccc(c23)N(C)C1c1cccs1,-0.099
8,O=C(Oc1ccc2c(=O)c(Oc3ccc4ccccc4c3)coc2c1)c1cccnc1,0.217
9,CCS(=O)(=O)N1CCC(NC(C)=O)(c2ccccc2)CC1,0.175
10,COc1ccc(CNC(=O)Cc2nn(C)c(=O)c3ccccc23)cc1,-0.155
11,Cc1cc(C(=O)OCC(=O)N2CC(=O)Nc3ccccc32)c(C)n1-c1ccccc1,-1.4
12,CCNC(=O)C1CCCN1S(=O)(=O)c1ccc(OC)cc1 (centres undefined),0.787
13,COC(=O)c1ccc(-n2nnnc2SCC(=O)Nc2ccccc2C(=O)OC)cc1,0.0292
14,CCN(C(=O)Cn1c(=O)oc2ccccc21)C1CCS(=O)(=O)C1 (centres undefined),-0.308
15,CN(C#N)c1nc(N2CCOCC2)nc(N2CCOCC2)n1,-0.397
16,Cc1ccc(S(=O)(=O)c2nc(-c3ccccc3)oc2NCCN2CCOCC2)cc1,0.162
17,CCOC(=O)c1c(-c2ccc(C)o2)csc1NC(=S)NC(=O)c1ccccc1Br,0.406
18,Nc1nonc1C(=O)N/N=C/c1cccc([N+](=O)[O-])c1,-0.0121
19,Cc1ccc(C2CC(=O)c3cnc(N4CCN(c5ccccc5)CC4)nc3C2)cc1 (centres undefined),0.776
20,O=C(COC(=O)c1cnccn1)Nc1ccc2c(c1)OCO2,0.668
21,CCc1ccc(N2C(=O)CC(N3CCC(C(=O)OC)CC3)C2=O)cc1 (centres undefined),-0.0761
22,c1ccc(-c2nc(NCc3ccco3)c3ccccc3n2)nc1,-0.859
23,Cc1ccc(-n2c(C)cc(/C=C(\C#N)C(=O)NCC3CCCO3)c2C)cc1 (centres undefined),-0.45

row,SMILES,z-score
1,Cc1ccc(OC(=S)Nc2ccccc2)c(C)c1,active: 3.2
2,N=C1C(c2nc3ccccc3[nH]2)=C(O)CN1c1ccccc1,-0.307
3,CCOc1cc(/C=N\NC(=O)c2ccc(NC(=O)C(C)(C)C)cc2)ccc1OC(=O)c1ccc(C)cc1,-0.218
4,CCOc1ccc2nc(NCCCNS(=O)(=O)c3ccc(C)cc3)c(C#N)cc2c1,-0.128
5,CCCc1cc(C(N)=S)ccn1,2.24
6,COc1ccc(OC)c(N(CC(N)=O)S(=O)(=O)c2ccc(OC)c(OC)c2)c1,-0.0368
7,NC(=O)CSc1nc(O)cc(=O)n1-c1ccccc1,0.418
8,Cc1ccc(C)c(-n2c(-c3ccc4c(c3)OCO4)n[nH]c2=S)c1,-0.146
9,Cc1cccc(-c2nnc(-c3ccc(N)cc3)o2)c1,0.111
10,O=[N+]([O-])c1ccc(N2CCN(S(=O)(=O)Cc3ccccc3)CC2)cc1N1CCOCC1,-0.395
11,CCCCc1nc2sc3c(c2c(=O)[nH]1)CCC3,0.62
12,N=C1C(=O)OCC1c1ccccc1NC(=O)c1ccc(F)cc1 (centres undefined),-0.0442
13,COc1ccc(C)cc1NC(=O)CN(c1ccccc1F)S(C)(=O)=O,-0.431
14,CC(C)NC(=O)CN1C(=O)NC(CCc2ccccc2)C1=O (centres undefined),0.261
15,C/C(=N\NC(=O)c1cccc(N/N=C(\C)c2ccccc2)c1)c1ccccc1,-0.529
16,CCCN(CCC)C(=O)CSc1nc2ccccc2c(=O)n1C1CCCC1,active: -4.46
17,Cn1cccc1Cc1nnc(SCC(=O)NCc2ccc3c(c2)OCO3)n1CCc1ccccc1,0.499
18,Cc1ccc(-c2nnc(NC3CCCCC3)c3ccccc23)cc1S(=O)(=O)N1CCN(C)CC1,-0.39
19,CCC1=Nc2ccc(Br)cc2C(c2ccccc2)N1CC(=O)OC (centres undefined),-0.0378
20,COc1ccc(OC)c(NC(=O)C2CCCN2C(=O)C2CCC(C)CC2)c1 (centres undefined),-0.952
21,COc1ccccc1NC(=O)CSc1nnc(CC(=O)Nc2cccc(C(F)(F)F)c2)n1C,0.541
22,Cc1ccc2nc(NC(=O)CSc3nnc(C)c(=O)n3N)sc2c1,-0.051
23,CCC(Sc1ncccc1C(=O)OCCN1CCCC1=O)C(=O)NCc1ccco1 (centres undefined),-0.404

row,SMILES,z-score
1,O=C(NCc1ccc2c(c1)OCO2)C1CCC(CNS(=O)(=O)c2ccccc2)CC1 (centres undefined),-0.0357
2,BrC(=C\c1ccccc1)/C=N/Nc1nc(N2CCOCC2)nc(N2CCOCC2)n1,-0.316
3,O=C(N/N=C1\CCCc2ccccc21)c1ccccc1[N+](=O)[O-],-0.0482
4,O=c1[nH]n2c(=O)c3c([nH]c2c1N=Nc1ccccc1)CCC3,-0.872
5,CC(=O)c1c(O)c(C)c(-c2ccccc2)n(-c2ccccc2)c1=O,-0.148
6,O=C1CCC(=O)N1CNc1ccccn1,1.05
7,CCN(c1ccccc1)S(=O)(=O)c1cc(OC)ccc1OC,0.192
8,COCCNS(=O)(=O)c1ccc(OCC(=O)OC)c(Cl)c1,-0.665
9,O=C(c1ccco1)N1CCN(C(=O)c2cc3c(s2)-c2ccccc2OC3)CC1,-0.636
10,COCCNC(=O)COc1ccc(Oc2ccccc2)cc1,-0.042
11,Cc1ccc(S(=O)(=O)N(C)C)cc1NC(=O)COC(=O)c1c(C)noc1C,-0.16
12,CCN1CCN(c2nc(N)c([N+](=O)[O-])c(Nc3cccc(C)c3)n2)CC1,0.0136
13,Cc1c(NC(=O)C(C)NCC2CCCO2)c(=O)n(-c2ccccc2)n1C (centres undefined),-0.189
14,CCOc1ccc(S(=O)(=O)NCc2ccc(F)cc2)c2cccnc12,-0.347
15,Cc1cc2nc(C)n(CCCNC(=O)Nc3ccccc3)c2cc1C,-0.376
16,Cc1nn(-c2cc(N3CCCCC3)ccc2[N+](=O)[O-])c(=O)c2ccccc12,-0.905
17,CCC(C)[C@H](NC(=O)OC(C)(C)C)C(=O)N/N=C/c1ccc2cc(OC)ccc2n1 (some centres undefined),-0.0973
18,Cn1c(C(N)=O)cnc1Sc1ncc(C(F)(F)F)cc1Cl,-0.347
19,O=S(=O)(NC1CC1)c1ccc(S(=O)(=O)N(Cc2ccccn2)C2CCCC2)cc1,-0.114
20,CCSc1nc2c(sc3ccccc32)c(=O)n1C(C)C,0.00726
21,O=C(N/C(=C/c1ccc(Br)cc1)C(=O)N1CCCC1)c1ccccc1F,-0.382
22,Cc1cc(C)nc(N2CCCC(C(=O)Nc3ccc4c(c3)OCO4)C2)n1 (centres undefined),0.461
23,COc1cc2c(cc1NC(=O)c1cc(-c3ccncc3)nc3ccc(C)cc13)oc1ccccc12,-1.46
